Data published in a collection of fitness landscapes (doi:10.1126/science.1257360).
The list shows a part of the results.

B1: PhoQ; a variant is named by its letters at X, in order, P23837 (parent)
chain: MKKLLRLFFPLSLRVRFLLATAAVVLVLSLAYGMVALIGYSVSFDKTTFRLLRGESNLFYTLAKWENNKLHVELPENIDKQSPTMTLIYDENGQLLWAQRDVPWLMKMIQPDWLKSNGFHEIEADVNDTSLLLSGDHSIQQQLQEVREDDDDAEMTHSVAVNVYPATSRMPKLTIVVVDTIPVELKSSYMVWSWFIYVLSANLLLVIPLLWVAAWWSLRPIEALAKEVRELEEHNRELLNPATTRELTSLVRNLNRLLKSERERYDKYRTTLTDLTHSLKTPLXXLQXXLRSLRSEKMSVSDAEPVMLEQISRISQQIGYYLHRASMRGGTLLSRELHPVAPLLDNLTSALNKVYQRKGVNISLDISPEISFVGEQNDFVEVMGNVLDNACKYCLEFVEISARQTDEHLYIVVEDDGPGIPLSKREVIFDRGQRVDTLRPGQGVGLAVAREITEQYEGKIVAGESMLGGARMEVIFGRQHSAPKDE

Variants of: B1
Assay: enrichment ratio after two sorts for PhoP signalling (ratio (wild type AVST 3.29)); higher = more functional
Details: with PhoP (E. coli)

| Variant | enrichment ratio |
| --- | --- |
| ISNP | ≤ 0.25 |
| TLRA | ≤ 0.25 |
| LKTV | ≤ 0.25 |
| YMQG | ≤ 0.25 |
| SNNT | 4.52 |
| RNPS | ≤ 0.25 |
| VPMD | ≤ 0.25 |
| AKGA | ≤ 0.25 |
| NGYI | ≤ 0.25 |
| WTKW | ≤ 0.25 |
| HDQW | ≤ 0.25 |
| GKLN | ≤ 0.25 |
| MRIC | ≤ 0.25 |
| GSWN | ≤ 0.25 |
| YLEK | ≤ 0.25 |
| VKTH | ≤ 0.25 |
| MWHC | ≤ 0.25 |
| MSAY | 7.95 |
| TACH | 2.66 |
| RHWR | ≤ 0.25 |
| VKYS | ≤ 0.25 |
| VIKA | ≤ 0.25 |
| TYLS | 0.649 |
| TPRT | ≤ 0.25 |
| MIFG | ≤ 0.25 |

| Variant | enrichment ratio |
| --- | --- |
| LTHS | ≤ 0.25 |
| KQRP | ≤ 0.25 |
| MCGT | 4.92 |
| TIWW | ≤ 0.25 |
| IEFA | ≤ 0.25 |
| QLQI | ≤ 0.25 |
| EICL | ≤ 0.25 |
| WGHS | ≤ 0.25 |
| DVAN | ≤ 0.25 |
| KSGY | ≤ 0.25 |
| HKEY | ≤ 0.25 |
| TSKG | ≤ 0.25 |
| QEVQ | ≤ 0.25 |
| KFME | ≤ 0.25 |
| PYFP | ≤ 0.25 |
| IKKQ | ≤ 0.25 |
| YEWL | ≤ 0.25 |
| TSNC | 5.47 |
| YWDK | ≤ 0.25 |
| ITTE | ≤ 0.25 |
| DCLT | ≤ 0.25 |
| FCYG | ≤ 0.25 |
| KTGP | ≤ 0.25 |
| KFFM | ≤ 0.25 |
| RTKH | ≤ 0.25 |

| Variant | enrichment ratio |
| --- | --- |
| ATYR | ≤ 0.25 |
| QVST | 0.685 |
| IQCV | ≤ 0.25 |
| STYI | ≤ 0.25 |
| IQSE | ≤ 0.25 |
| QQSW | ≤ 0.25 |
| HAWG | ≤ 0.25 |
| LYWK | ≤ 0.25 |
| ASGC | 2.48 |
| MVCR | ≤ 0.25 |
| PIMG | ≤ 0.25 |
| TTGS | 8.05 |
| GGND | ≤ 0.25 |
| KTGC | ≤ 0.25 |
| AIMV | 5.05 |
| MQTK | ≤ 0.25 |
| EMVP | ≤ 0.25 |
| QDSF | ≤ 0.25 |
| GYSQ | ≤ 0.25 |
| WGAK | ≤ 0.25 |
| QMKG | ≤ 0.25 |
| KGFS | ≤ 0.25 |
| RHPT | ≤ 0.25 |
| VYWL | ≤ 0.25 |
| WCVS | ≤ 0.25 |

| Variant | enrichment ratio |
| --- | --- |
| RRAW | ≤ 0.25 |
| WMFR | ≤ 0.25 |
| FHVD | ≤ 0.25 |
| IYVI | ≤ 0.25 |
| GWGD | ≤ 0.25 |
| KVCS | ≤ 0.25 |
| TADG | ≤ 0.25 |
| VGFE | ≤ 0.25 |
| SECP | ≤ 0.25 |
| QQDN | ≤ 0.25 |
| ILQW | ≤ 0.25 |
| AAFH | ≤ 0.25 |
| VGHC | ≤ 0.25 |
| SPSI | ≤ 0.25 |
| WPRC | ≤ 0.25 |
| AGLW | ≤ 0.25 |
| TMAC | 28.2 |
| LSPC | ≤ 0.25 |
| WLLV | ≤ 0.25 |
| LHAY | ≤ 0.25 |
| GEVE | ≤ 0.25 |
| WKPY | ≤ 0.25 |
| EQYI | ≤ 0.25 |
| PVHW | ≤ 0.25 |
| PAKW | ≤ 0.25 |

| Variant | enrichment ratio |
| --- | --- |
| YNNT | ≤ 0.25 |
| MGDI | ≤ 0.25 |
| YEQP | ≤ 0.25 |
| NTKL | ≤ 0.25 |
| NWRR | ≤ 0.25 |
| LIMR | ≤ 0.25 |
| ESVQ | ≤ 0.25 |
| EAHA | ≤ 0.25 |
| SWCS | ≤ 0.25 |
| DTKF | ≤ 0.25 |
| QNVV | ≤ 0.25 |
| DRVW | ≤ 0.25 |
| RMGQ | ≤ 0.25 |
| WYGY | ≤ 0.25 |
| AWWD | ≤ 0.25 |
| KFKR | ≤ 0.25 |
| NGKQ | ≤ 0.25 |
| SRSR | ≤ 0.25 |
| NVMS | ≤ 0.25 |
| SPYM | ≤ 0.25 |
| LYPL | ≤ 0.25 |
| GAMP | ≤ 0.25 |
| QGLG | 5.07 |
| HLGR | ≤ 0.25 |
| HPYY | ≤ 0.25 |

| Variant | enrichment ratio |
| --- | --- |
| TIFK | ≤ 0.25 |
| FQNI | ≤ 0.25 |
| YFRN | ≤ 0.25 |
| KRHF | ≤ 0.25 |
| YTSH | 1.07 |
| HHYC | ≤ 0.25 |
| IGIQ | ≤ 0.25 |
| VMHL | ≤ 0.25 |
| AFLN | ≤ 0.25 |
| FVTN | ≤ 0.25 |
| FHSN | ≤ 0.25 |
| YQSY | ≤ 0.25 |
| QQLI | 1.28 |
| KHFL | ≤ 0.25 |
| RREG | ≤ 0.25 |
| RMCV | ≤ 0.25 |
| DIYF | ≤ 0.25 |
| RQIR | ≤ 0.25 |
| SVEG | ≤ 0.25 |
| CHRG | ≤ 0.25 |
| GQSH | ≤ 0.25 |
| AHGM | ≤ 0.25 |
| NFNR | ≤ 0.25 |
| NQHK | ≤ 0.25 |
| FWTN | ≤ 0.25 |

| Variant | enrichment ratio |
| --- | --- |
| SHFH | ≤ 0.25 |
| IIYY | ≤ 0.25 |
| EYLR | ≤ 0.25 |
| SNPF | ≤ 0.25 |
| VPYI | ≤ 0.25 |
| MVPL | ≤ 0.25 |
| PGVD | ≤ 0.25 |
| TTCP | ≤ 0.25 |
| VSTL | 2.35 |
| RIAI | ≤ 0.25 |
| GSDH | ≤ 0.25 |
| NHRP | ≤ 0.25 |
| ELGY | ≤ 0.25 |
| VGTG | ≤ 0.25 |
| TQHN | ≤ 0.25 |
| LNQI | ≤ 0.25 |
| MYAC | ≤ 0.25 |
| IVFC | ≤ 0.25 |
| QMLQ | ≤ 0.25 |
| PMPW | ≤ 0.25 |
| TLMF | ≤ 0.25 |
| TSNI | 9.65 |
| VHWP | ≤ 0.25 |
| FFTS | ≤ 0.25 |
| PIYC | ≤ 0.25 |

| Variant | enrichment ratio |
| --- | --- |
| NNCS | 1.41 |
| PFHS | ≤ 0.25 |
| DWIH | ≤ 0.25 |
| YKSI | ≤ 0.25 |
| IEGT | ≤ 0.25 |
| YYAP | ≤ 0.25 |
| GCGK | ≤ 0.25 |
| WETI | ≤ 0.25 |
| DPVE | ≤ 0.25 |
| RGWT | ≤ 0.25 |
| LNFA | ≤ 0.25 |
| NIIM | ≤ 0.25 |
| QQCE | ≤ 0.25 |
| RADH | ≤ 0.25 |
| MYCF | ≤ 0.25 |
| FYCF | ≤ 0.25 |
| RIYW | ≤ 0.25 |
| HHPS | ≤ 0.25 |
| WEPN | ≤ 0.25 |
| TKME | 0.26 |
